This is an account of results in publication PMC7435778, “Bidirectional Modulation of the Voltage-Gated Sodium (Nav1.6) Channel by Rationally Designed Peptidomimetics” (Molecules, 2020).

The target of assay [1] is T1, FGF14:Nav1.6 complex (Homo sapiens, UniProt Q92915+Q9UQD0). Particulars: for In-cell activity on FGF14:Nav1.6 complex assembly (in words): LCA screening.
The target in assay [2] is T1, FGF14:Nav1.6 complex. Description: cell-based. Particulars: for activity at 25 µM: 12 h, read-out: LCA (%Lum); for Emax: read-out: EMax (percent luminescence at the top plateau).
In another assay the target is Nav1.6 C-terminal tail (Homo sapiens, UniProt Q9UQD0).
In assay [3] the target is T1, FGF14:Nav1.6 complex. Also noted: expressed in transfected cells. The following applies: cited from earlier work; for IMin: previously reported FLPK analogs, Figure 1A; for IC50: previously reported, read-out: IC50 (inhibition of FGF14:Nav1.6 complex assembly).

Usually EC50 stands for the midpoint of the concentration-response curve. A low value points to higher potency in that assay. What is called Emax is the maximal effect, on the per cent scale that the assay sets. As a reminder, the IC50 is the concentration that gives 50% inhibition.

Read-outs that look alike come from different tables or passages of the source. Starred links: 1 amine or outer side, 2 acyl side, 3 side chain; linkers in the order of their positions; H or OH if unused. Residues, ends and D or L forms follow the SMILES beside them. *: point of attachment. Adamantane1carbonyl = O=C(C12CC3CC(CC(C3)C1)C2)*; NH(1-Adamantyl) = C1C2CC3CC1CC(N*)(C2)C3; Cyclohexanecarbonyl = O=C(C1CCCCC1)*; Fmoc = O=C(OCC1c2ccccc2-c2ccccc21)*; Decanoyl = CCCCCCCCCC(=O)*; Cbz = O=C(OCc1ccccc1)*; Boc = CC(C)(C)OC(=O)*; CO = O=C([*:1])[*:2]; Bz = O=C(c1ccccc1)*; OtBu = CC(C)(C)O*; tBu = CC(C)(C)*

For the compound `CC(C)[C@H](NC(=O)[C@H](Cc1ccc(OC(C)(C)C)cc1)NC(=O)OCC1c2ccccc2-c2ccccc21)C(N)=O` [Compound 10, (9H-fluoren-9-yl)methyl ((S)-1-(((S)-1-amino-3-methyl-1-oxobutan-2-yl)amino)-3-(4-(tert-butoxy)phenyl)-1-oxopropan-2-yl)carbamate] (Fmoc-Tyr(tBu)-Val-NH2), on FGF14:Nav1.6 complex [1] (25 µM), the “In-cell activity on FGF14:Nav1.6 complex assembly (in words)” value (shortened to “In-cell activity”) is “loss of activity”. On FGF14:Nav1.6 complex [2], the activity at 25 µM came out at 92.9 ± 2.1%.

As to `CC(=O)N[C@@H](CCC(=O)OC(C)(C)C)C(=O)N[C@@H](Cc1ccc(OC(C)(C)C)cc1)C(=O)N[C@@H](Cc1ccc(OC(C)(C)C)cc1)C(=O)N[C@H](C(N)=O)C(C)C` [Compound 17, tert-butyl (S)-4-acetamido-5-(((S)-1-(((S)-1-(((S)-1-amino-3-methyl-1-oxobutan-2-yl)amino)-3-(4-(tert-butoxy)phenyl)-1-oxopropan-2-yl)amino)-3-(4-(tert-butoxy)phenyl)-1-oxopropan-2-yl)amino)-5-oxopentanoate] (Ac-E(OtBu)Y(tBu)Y(tBu)V-NH2), at FGF14:Nav1.6 complex [1] (25 µM), the “In-cell activity” value is reported as “markedly potentiated assembly of the FGF14:Nav1.6 complex”. In addition, at FGF14:Nav1.6 complex [2], the response was half-maximal at 12.5 µM (EC50), the activity at 25 µM is 128 ± 2.6% and the Emax came out at 153 ± 3.5%.

Turning to `CC(C)[C@H](NC(=O)[C@H](Cc1ccc(OC(C)(C)C)cc1)NC(=O)[C@H](Cc1ccc(OC(C)(C)C)cc1)NC(=O)[C@H](CCC(=O)OC(C)(C)C)NC(=O)c1ccccc1)C(N)=O` [Compound 19, tert-butyl (S)-5-(((S)-1-(((S)-1-(((S)-1-amino-3-methyl-1-oxobutan-2-yl)amino)-3-(4-(tert-butoxy)phenyl)-1-oxopropan-2-yl)amino)-3-(4-(tert-butoxy)phenyl)-1-oxopropan-2-yl)amino)-4-benzamido-5-oxopentanoate] (Bz-E(OtBu)Y(tBu)Y(tBu)V-NH2), at Nav1.6 C-terminal tail (19 compared to 12 and 17), the “Fold greater binding affinity toward Nav1.6” value was “about 4 fold”. Further, the “Fold increase in binding to Nav1.6” value on Nav1.6 C-terminal tail (19 relative to 17 (Ac to benzoyl)) was found to be 4 fold. Also, the “koff Nav1.6” value on Nav1.6 C-terminal tail (SPR, Langmuir 1:1 model) was found to be 0.015 s⁻¹. Moreover, on FGF14:Nav1.6 complex [2], the EC50 was found to be 24.5 ± 1.7 µM, the activity at 25 µM stood at 132 ± 1.9% and the Emax worked out at 192 ± 3.2%.

As to `COC(=O)[C@@H](NC(=O)[C@H](Cc1ccc(OC(C)(C)C)cc1)NC(=O)[C@H](Cc1ccc(OC(C)(C)C)cc1)NC(=O)[C@H](CCC(=O)OC(C)(C)C)NC(=O)OCC1c2ccccc2-c2ccccc21)C(C)C` [Compound 16, methyl (5S,8S,11S,14S)-5-(3-(tert-butoxy)-3-oxopropyl)-8,11-bis(4-(tert-butoxy)benzyl)-1-(9H-fluoren-9-yl)-14-isopropyl-3,6,9,12-tetraoxo-2-oxa-4,7,10,13-tetraazapentadecan-15-oate] (Fmoc-E(OtBu)Y(tBu)Y(tBu)V-OMe), at FGF14:Nav1.6 complex [1] (25 µM), the “In-cell activity” value is given as “complete loss of in-cell activity”. Also, on FGF14:Nav1.6 complex [2], the activity at 25 µM came to 102 ± 2%.

Consider `CC(C)[C@H](NC(=O)[C@H](Cc1ccc(OC(C)(C)C)cc1)NC(=O)[C@H](Cc1ccc(OC(C)(C)C)cc1)NC(=O)[C@H](CCC(=O)OC(C)(C)C)NC(=O)C1CCCCC1)C(N)=O` [Compound 23, tert-Butyl (S)-5-(((S)-1-(((S)-1-(((S)-1-amino-3-methyl-1-oxobutan-2-yl)amino)-3-(4-(tert-butoxy)phenyl)-1-oxopropan-2-yl)amino)-3-(4-(tert-butoxy)phenyl)-1-oxopropan-2-yl)amino)-4-(cyclohexanecarboxamido)-5-oxopentanoate] (Cyclohexanecarbonyl-E(OtBu)Y(tBu)Y(tBu)V-NH2), for which the activity at 25 µM at FGF14:Nav1.6 complex [2] is 93.8 ± 3.3%.

In the case of `COC(=O)[C@H](CCCCNC(=O)OCC1c2ccccc2-c2ccccc21)NC(=O)[C@@H]1CCCN1C(=O)[C@H](CC(C)C)NC(=O)[C@H](Cc1ccccc1)NC(C)=O` [ZL181] (Ac-FLPK(Fmoc)-OMe), at FGF14:Nav1.6 complex [3], the IMin is 26% and the IC50 is 63 µM.

With `CC(C)[C@H](NC(=O)[C@H](Cc1ccc(OC(C)(C)C)cc1)NC(=O)[C@H](Cc1ccc(OC(C)(C)C)cc1)NC(=O)OCC1c2ccccc2-c2ccccc21)C(N)=O` [Compound 12, (9H-fluoren-9-yl)methyl ((S)-1-(((S)-1-(((S)-1-amino-3-methyl-1-oxobutan-2-yl)amino)-3-(4-(tert-butoxy)phenyl)-1-oxopropan-2-yl)amino)-3-(4-(tert-butoxy)phenyl)-1-oxopropan-2-yl)carbamate] (Fmoc-Tyr(tBu)-Tyr(tBu)-Val-NH2), the “In-cell activity” value on FGF14:Nav1.6 complex [1] (25 µM) is reported as “markedly inhibited FGF14:Nav1.6 complex assembly”. In addition, the “IMin (percent luminescence at the bottom plateau)” value at FGF14:Nav1.6 complex [1] (dose response, ± SEM) amounted to 18.3 ± 1.2%. Also, at FGF14:Nav1.6 complex [2], 23.7 ± 0.7 µM corresponded to half-maximal inhibition (IC50) and the activity at 25 µM was 31.1 ± 2%.

For the compound “tert-Butyl (S)-5-(((S)-1-(((S)-1-(((S)-1-amino-3-methyl-1-oxobutan-2-yl)amino)-3-(4-(tert-butoxy)phenyl)-1-oxopropan-2-yl)amino)-3-(4-(tert-butoxy)phenyl)-1-oxopropan-2-yl)amino)-4-(((benzyloxy)carbonyl)amino)-5-oxopentanoate [Compound 24]”, the “LCA (%Lum)” value on FGF14:Nav1.6 complex [1] (25 µM, 12 h, percent luminescence relative to per plate 0.5% DMSO controls, mean ± SEM) was 111.5 ± 2.5%. For the same compound, the “In-cell activity” value on FGF14:Nav1.6 complex [1] (25 µM) is given as “retained activity”.

In the case of `CC(C)[C@H](NC(=O)[C@H](Cc1ccc(OC(C)(C)C)cc1)NC(=O)[C@H](Cc1ccc(OC(C)(C)C)cc1)NC(=O)[C@H](CCC(=O)OC(C)(C)C)NC(=O)NC12CC3CC(CC(C3)C1)C2)C(N)=O` [Compound 20, tert-Butyl (S)-4-(3-((3R,5R,7R)-adamantan-1-yl)ureido)-5-(((S)-1-(((S)-1-(((S)-1-amino-3-methyl-1-oxobutan-2-yl)amino)-3-(4-(tert-butoxy)phenyl)-1-oxopropan-2-yl)amino)-3-(4-(tert-butoxy)phenyl)-1-oxopropan-2-yl)amino)-5-oxopentanoate] ({NH(1-Adamantyl)-CO}-E(OtBu)Y(tBu)Y(tBu)V-NH2), the “In-cell activity” value at FGF14:Nav1.6 complex [1] (25 µM) was “abrogated in-cell activity”. In addition, the activity at 25 µM on FGF14:Nav1.6 complex [2] was 95.3 ± 3.4%.

As for `COC(=O)[C@@H](NC(=O)[C@H](Cc1ccc(OC(C)(C)C)cc1)NC(=O)[C@H](Cc1ccc(OC(C)(C)C)cc1)NC(=O)[C@H](CCC(=O)OC(C)(C)C)NC(C)=O)C(C)C` [Compound 18, methyl (2S,5S,8S,11S)-11-(3-(tert-butoxy)-3-oxopropyl)-5,8-bis(4-(tert-butoxy)benzyl)-2-isopropyl-4,7,10,13-tetraoxo-3,6,9,12-tetraazatetradecanoate] (Ac-E(OtBu)Y(tBu)Y(tBu)V-OMe), the “In-cell activity” value on FGF14:Nav1.6 complex [1] (25 µM) is given as “complete loss of in-cell activity”. Further, the activity at 25 µM on FGF14:Nav1.6 complex [2] was 104 ± 1.3%.

In the case of `CC(C)C[C@H](NC(=O)[C@H](Cc1ccccc1)NC(=O)OCc1ccccc1)C(=O)N1CCC[C@H]1C(=O)N[C@@H](CCCCNC(=O)OC(C)(C)C)C(N)=O` [ZL0177] (Cbz-FLPK(Boc)-NH2), on FGF14:Nav1.6 complex [3], the IMin was 7% and the 50% inhibitory concentration (IC50) was 11 µM.

In the case of `CC(C)[C@H](NC(=O)[C@H](Cc1ccc(OC(C)(C)C)cc1)NC(=O)[C@H](Cc1ccc(OC(C)(C)C)cc1)NC(=O)[C@H](CCC(=O)OC(C)(C)C)NC(=O)OCC1c2ccccc2-c2ccccc21)C(N)=O` [Compound 15, tert-butyl (S)-4-((((9H-fluoren-9-yl)methoxy)carbonyl)amino)-5-(((S)-1-(((S)-1-(((S)-1-amino-3-methyl-1-oxobutan-2-yl)amino)-3-(4-(tert-butoxy)phenyl)-1-oxopropan-2-yl)amino)-3-(4-(tert-butoxy)phenyl)-1-oxopropan-2-yl)amino)-5-oxopentanoate] (Fmoc-E(OtBu)Y(tBu)Y(tBu)V-NH2), on FGF14:Nav1.6 complex [1] (25 µM), the “In-cell activity” value is listed as “significant loss of in-cell activity”. Also, the activity at 25 µM on FGF14:Nav1.6 complex [2] amounted to 109 ± 2.5%.

For `CCCCCCCCCC(=O)N[C@@H](CCC(=O)OC(C)(C)C)C(=O)N[C@@H](Cc1ccc(OC(C)(C)C)cc1)C(=O)N[C@@H](Cc1ccc(OC(C)(C)C)cc1)C(=O)N[C@H](C(N)=O)C(C)C` [Compound 22, tert-Butyl (S)-5-(((S)-1-(((S)-1-(((S)-1-amino-3-methyl-1-oxobutan-2-yl)amino)-3-(4-(tert-butoxy)phenyl)-1-oxopropan-2-yl)amino)-3-(4-(tert-butoxy)phenyl)-1-oxopropan-2-yl)amino)-4-decanamido-5-oxopentanoate] (Decanoyl-E(OtBu)Y(tBu)Y(tBu)V-NH2), the “In-cell activity” value at FGF14:Nav1.6 complex [1] (25 µM) is reported as “retained activity”. For the same compound, at FGF14:Nav1.6 complex [2], the EC50 was 47.5 ± 10.6 µM, the activity at 25 µM is 123 ± 2.8% and the Emax was found to be 163 ± 6.5%.

For `CC(C)[C@H](NC(=O)[C@H](Cc1ccc(OC(C)(C)C)cc1)NC(=O)[C@H](Cc1ccc(OC(C)(C)C)cc1)NC(=O)[C@H](CCC(=O)OC(C)(C)C)NC(=O)C12CC3CC(CC(C3)C1)C2)C(N)=O` [Compound 21, tert-Butyl (4S)-4-((1S,3R,5S)-adamantane-1-carboxamido)-5-(((S)-1-(((S)-1-(((S)-1-amino-3-methyl-1-oxobutan-2-yl)amino)-3-(4-(tert-butoxy)phenyl)-1-oxopropan-2-yl)amino)-3-(4-(tert-butoxy)phenyl)-1-oxopropan-2-yl)amino)-5-oxopentanoate] (Adamantane1carbonyl-E(OtBu)Y(tBu)Y(tBu)V-NH2), the “In-cell activity” value on FGF14:Nav1.6 complex [1] (25 µM) is reported as “abrogated in-cell activity”. Moreover, on FGF14:Nav1.6 complex [2], the activity at 25 µM was 101 ± 2.2%.
